# The other results are listed elsewhere or left out.
# What was measured:
# Experiment in all cases: glycan array binding signal (z-score within array); higher = stronger binding
# Conditions in all cases: glycan notation: IUPAC condensed, linker removed
# [1] = molecular target: Neu5Ac(a2-6)Gal(b1-4)GlcNAc(b1-2)Man(a1-3)Man(b1-4)GlcNAc(b1-4)GlcNAc
# Method in brief: (§1)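 From the Consortium for Functional Glycomics database, 3228 arrays were curated, keeping only those whose protein sequence was available. Binding is given as a within-array Z-score averaged across arrays sharing a protein sequence and across linkers. Negative Z-scores can be read as non-binding.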
# [2] = molecular target: Neu5Ac(a2-6)Gal(b1-4)GlcNAc(b1-2)Man(a1-3)[Gal(b1-4)GlcNAc(b1-2)Man(a1-6)]Man(b1-4)GlcNAc(b1-4)GlcNAc
# Method in brief: as §1
# [3] = molecular target: Neu5Ac(a2-6)Gal(b1-4)GlcNAc(b1-2)Man(a1-3)[GlcNAc(b1-2)Man(a1-6)]Man(b1-4)GlcNAc(b1-4)GlcNAc
# Method in brief: as §1
# [4] = molecular target: Neu5Ac(a2-6)Gal(b1-4)GlcNAc(b1-2)Man(a1-3)[GlcNAc(b1-2)Man(b1-4)GlcNAc(b1-2)Man(a1-6)]Man(b1-4)GlcNAc(b1-4)GlcNAc
# Method in brief: as §1
# [5] = molecular target: Neu5Ac(a2-6)Gal(b1-4)GlcNAc(b1-2)Man(a1-3)[Man(a1-6)]Man(b1-4)GlcNAc(b1-4)GlcNAc
# Method in brief: as §1
# [6] = molecular target: Neu5Ac(a2-6)Gal(b1-4)GlcNAc(b1-2)Man(a1-3)[Neu5Ac(a2-6)Gal(b1-4)GlcNAc(b1-2)Man(a1-6)]Man(b1-4)GlcNAc(b1-4)GlcNAc
# Method in brief: as §1
# [7] = molecular target: Neu5Ac(a2-6)Gal(b1-4)GlcNAc(b1-2)Man(a1-6)Man(b1-4)GlcNAc(b1-4)GlcNAc
# Method in brief: as §1
# [8] = molecular target: Neu5Ac(a2-6)Gal(b1-4)GlcNAc(b1-2)Man(a1-6)[Gal(b1-4)GlcNAc(b1-2)Man(a1-3)]Man(b1-4)GlcNAc(b1-4)GlcNAc
# Method in brief: as §1
# [9] = molecular target: Neu5Ac(a2-6)Gal(b1-4)GlcNAc(b1-2)Man(a1-6)[GlcNAc(b1-2)Man(a1-3)]Man(b1-4)GlcNAc(b1-4)GlcNAc
# Method in brief: as §1
# [10] = molecular target: Neu5Ac(a2-6)Gal(b1-4)GlcNAc(b1-2)Man(a1-6)[Man(a1-3)]Man(b1-4)GlcNAc(b1-4)GlcNAc
# Method in brief: as §1
# [11] = molecular target: Neu5Ac(a2-6)Gal(b1-4)GlcNAc(b1-3)Gal(b1-3)GlcNAc
# Method in brief: as §1
# [12] = molecular target: Neu5Ac(a2-6)Gal(b1-4)GlcNAc(b1-3)Gal(b1-4)GlcNAc
# Method in brief: as §1
# [13] = molecular target: Neu5Ac(a2-6)Gal(b1-4)GlcNAc(b1-3)Gal(b1-4)GlcNAc(b1-3)Gal(b1-4)GlcNAc
# Method in brief: as §1
# [14] = molecular target: Neu5Ac(a2-6)Gal(b1-4)GlcNAc(b1-3)Gal(b1-4)[Fuc(a1-3)]GlcNAc(b1-3)Gal(b1-4)[Fuc(a1-3)]GlcNAc
# Method in brief: as §1
# [15] = molecular target: Neu5Ac(a2-6)Gal(b1-4)GlcNAc(b1-3)GalNAc
# Method in brief: as §1
# [16] = molecular target: Neu5Ac(a2-6)Gal(b1-4)GlcNAc6S
# Method in brief: as §1
# Neu5Ac(a2-6)GalNAc = molecular target: Neu5Ac(a2-6)GalNAc
# Method in brief: as §1
# [17] = molecular target: Neu5Ac(a2-6)GalNAc(b1-4)GlcNAc
# Method in brief: as §1
# [18] = molecular target: Neu5Ac(a2-6)GlcNAc(b1-4)GlcNAc
# Method in brief: as §1
# [19] = molecular target: Neu5Ac(a2-6)GlcNAc(b1-4)GlcNAc(b1-4)GlcNAc
# Method in brief: as §1
# Neu5Ac(a2-8)Neu5Ac = molecular target: Neu5Ac(a2-8)Neu5Ac
# Method in brief: as §1
# [20] = molecular target: Neu5Ac(a2-8)Neu5Ac(a2-3)Gal(b1-4)Glc
# Method in brief: as §1
# [21] = molecular target: Neu5Ac(a2-8)Neu5Ac(a2-3)[GalNAc(b1-4)]Gal(b1-4)Glc
# Method in brief: as §1
# [22] = molecular target: Neu5Ac(a2-8)Neu5Ac(a2-8)Neu5Ac
# Method in brief: as §1
# [23] = molecular target: Neu5Ac(a2-8)Neu5Ac(a2-8)Neu5Ac(a2-3)Gal(b1-4)Glc
# Method in brief: as §1
# [24] = molecular target: Neu5Ac(a2-8)Neu5Ac(a2-8)Neu5Ac(a2-3)[GalNAc(b1-4)]Gal(b1-4)Glc
# Method in brief: as §1
# [25] = molecular target: Neu5Ac(a2-8)Neu5Ac(a2-8)Neu5Ac(a2-8)Neu5Ac(a2-3)[GalNAc(b1-4)]Gal(b1-4)Glc
# Method in brief: as §1
# [26] = molecular target: Neu5Ac(b2-6)Gal(b1-4)GlcNAc
# Method in brief: as §1
# Neu5Ac(b2-6)GalNAc = molecular target: Neu5Ac(b2-6)GalNAc
# Method in brief: as §1
# [27] = molecular target: Neu5Ac9Ac(a2-3)Gal(b1-3)GlcNAc
# Method in brief: as §1
# [28] = molecular target: Neu5Ac9Ac(a2-3)Gal(b1-4)GlcNAc
# Method in brief: as §1
# [29] = molecular target: Neu5Ac9Ac(a2-6)Gal(b1-4)GlcNAc
# Method in brief: as §1
# [30] = molecular target: Neu5Gc(a2-3)Gal(b1-3)GlcNAc
# Method in brief: as §1
# [31] = molecular target: Neu5Gc(a2-3)Gal(b1-3)[Fuc(a1-4)]GlcNAc
# Method in brief: as §1
# Neu5Gc(a2-3)Gal(b1-4)Glc = molecular target: Neu5Gc(a2-3)Gal(b1-4)Glc
# Method in brief: as §1
# [32] = molecular target: Neu5Gc(a2-3)Gal(b1-4)GlcNAc
# Method in brief: as §1
# [33] = molecular target: Neu5Gc(a2-3)Gal(b1-4)[Fuc(a1-3)]GlcNAc
# Method in brief: as §1
# [34] = molecular target: Neu5Gc(a2-6)Gal(b1-4)GlcNAc
# Method in brief: as §1
# Neu5Gc(a2-6)GalNAc = molecular target: Neu5Gc(a2-6)GalNAc
# Method in brief: as §1
# [35] = molecular target: Neu5Gc(b2-6)Gal(b1-4)GlcNAc
# Method in brief: as §1
binder,measurement,setting,value
Gal 1 (Canis lupus) (protein) MACGLVASNLSLKPGQCLRVQCEVVPEAKSFVLNLGKDGDNLCLHFNPRFEAHGDVNTIVCNSKDGGAWGEELRESAFPFQPGTVTEVCISFDQADLTIKLPDGYTFKFPNRLNLEAISYLAADGDMKIKCLAFD,glycan array binding signal (z-score),[1],-0.311
same,glycan array binding signal (z-score),[2],0.048
same,glycan array binding signal (z-score),[3],-0.293
same,glycan array binding signal (z-score),[4],0.236
same,glycan array binding signal (z-score),[5],-0.306
same,glycan array binding signal (z-score),[6],-0.326
same,glycan array binding signal (z-score),[7],-0.235
same,glycan array binding signal (z-score),[8],0.026
same,glycan array binding signal (z-score),[9],-0.301
same,glycan array binding signal (z-score),[10],-0.292
same,glycan array binding signal (z-score),[11],-0.32
same,glycan array binding signal (z-score),[12],-0.308
same,glycan array binding signal (z-score),[13],-0.309
same,glycan array binding signal (z-score),[14],-0.319
same,glycan array binding signal (z-score),[15],-0.322
same,glycan array binding signal (z-score),[16],-0.332
same,glycan array binding signal (z-score),Neu5Ac(a2-6)GalNAc,-0.344
same,glycan array binding signal (z-score),[17],-0.332
same,glycan array binding signal (z-score),[18],-0.329
same,glycan array binding signal (z-score),[19],-0.319
same,glycan array binding signal (z-score),Neu5Ac(a2-8)Neu5Ac,-0.318
same,glycan array binding signal (z-score),[20],-0.055
same,glycan array binding signal (z-score),[21],-0.332
same,glycan array binding signal (z-score),[22],-0.324
same,glycan array binding signal (z-score),[23],-0.311
same,glycan array binding signal (z-score),[24],-0.32
same,glycan array binding signal (z-score),[25],-0.31
same,glycan array binding signal (z-score),[26],-0.338
same,glycan array binding signal (z-score),Neu5Ac(b2-6)GalNAc,-0.315
same,glycan array binding signal (z-score),[27],0.272
same,glycan array binding signal (z-score),[28],0.093
same,glycan array binding signal (z-score),[29],-0.303
same,glycan array binding signal (z-score),[30],0.64
same,glycan array binding signal (z-score),[31],-0.315
same,glycan array binding signal (z-score),Neu5Gc(a2-3)Gal(b1-4)Glc,-0.296
same,glycan array binding signal (z-score),[32],0.209
same,glycan array binding signal (z-score),[33],-0.321
same,glycan array binding signal (z-score),[34],-0.208
same,glycan array binding signal (z-score),Neu5Gc(a2-6)GalNAc,-0.307
same,glycan array binding signal (z-score),[35],-0.304

# — the supplement of paper PMC8728848
